Experimental data published in patent publication US8586634B2, “Therapeutic compounds” (University of Florida Research Foundation, Inc., priority 2007, dated 2013).

How the values were obtained:
[1] = biological target: T1, Muscarinic Receptor M5 (Homo sapiens, UniProt P08912); assay: Muscarinic receptor affinity; format: binding; conditions: read-out: Affinity of (+/−)trans-PAT Ki
T1 sequence (P08912 1-532): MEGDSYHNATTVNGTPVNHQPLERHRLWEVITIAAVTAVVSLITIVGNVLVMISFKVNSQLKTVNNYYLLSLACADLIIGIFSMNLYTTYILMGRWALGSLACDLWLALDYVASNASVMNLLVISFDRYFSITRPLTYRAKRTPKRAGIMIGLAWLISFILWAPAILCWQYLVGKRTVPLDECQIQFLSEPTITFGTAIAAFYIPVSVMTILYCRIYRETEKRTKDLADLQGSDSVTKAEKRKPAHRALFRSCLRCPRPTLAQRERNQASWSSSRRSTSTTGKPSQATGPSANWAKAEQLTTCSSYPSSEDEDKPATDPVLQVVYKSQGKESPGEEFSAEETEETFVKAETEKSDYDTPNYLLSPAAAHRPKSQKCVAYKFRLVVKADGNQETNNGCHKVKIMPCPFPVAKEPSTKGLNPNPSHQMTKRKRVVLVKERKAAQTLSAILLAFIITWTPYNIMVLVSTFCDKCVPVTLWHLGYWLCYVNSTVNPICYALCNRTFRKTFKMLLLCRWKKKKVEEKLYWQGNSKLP
Procedure: (§1) Muscarinic receptor activity is assessed using any suitable protocol, including those essentially as described in: Novascreen, NIMH Psychotherapeutic Drug Discovery and Development Program, Oceanix Biosciences Corporation, 1996; and PDSP, Psychoactive Drug Screening Program; B L Roth, Director. NIMH Contract NO2MH80002, Case Western Reserve University, Cleveland, Ohio, and University of North Carolina, Chapel Hill, N.C., 2005.

[2] = biological target: Muscarinic Receptor M3 (Homo sapiens, UniProt P20309); assay: Muscarinic receptor affinity; format: binding; conditions: read-out: Affinity of (+/−)trans-PAT Ki
Chain of UniProt P20309 (P20309 whole entry): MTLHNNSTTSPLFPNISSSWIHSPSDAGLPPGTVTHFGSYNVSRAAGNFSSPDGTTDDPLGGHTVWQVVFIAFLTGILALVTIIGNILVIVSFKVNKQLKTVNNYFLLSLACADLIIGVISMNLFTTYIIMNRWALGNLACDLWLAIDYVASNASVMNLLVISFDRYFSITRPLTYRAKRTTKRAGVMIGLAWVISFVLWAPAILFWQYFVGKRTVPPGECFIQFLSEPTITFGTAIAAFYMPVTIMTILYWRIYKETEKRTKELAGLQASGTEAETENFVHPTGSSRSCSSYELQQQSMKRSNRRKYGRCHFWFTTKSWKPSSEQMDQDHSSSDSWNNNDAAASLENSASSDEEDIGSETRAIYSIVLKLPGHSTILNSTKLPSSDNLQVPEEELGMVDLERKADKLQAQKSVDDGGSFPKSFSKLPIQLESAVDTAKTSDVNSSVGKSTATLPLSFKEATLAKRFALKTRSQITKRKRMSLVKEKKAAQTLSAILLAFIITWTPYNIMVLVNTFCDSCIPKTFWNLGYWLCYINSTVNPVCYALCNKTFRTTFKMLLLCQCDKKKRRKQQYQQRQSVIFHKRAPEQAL
Procedure: as §1

[3] = biological target: 5-HT2A receptors (Homo sapiens, UniProt P28223); assay: Radioreceptor competition binding, [3H]-ketanserin, membranes of transfected CHO-K1 cells; conditions: for nH: Table 5, 5HT2A
Chain of UniProt P28223 (P28223 whole entry): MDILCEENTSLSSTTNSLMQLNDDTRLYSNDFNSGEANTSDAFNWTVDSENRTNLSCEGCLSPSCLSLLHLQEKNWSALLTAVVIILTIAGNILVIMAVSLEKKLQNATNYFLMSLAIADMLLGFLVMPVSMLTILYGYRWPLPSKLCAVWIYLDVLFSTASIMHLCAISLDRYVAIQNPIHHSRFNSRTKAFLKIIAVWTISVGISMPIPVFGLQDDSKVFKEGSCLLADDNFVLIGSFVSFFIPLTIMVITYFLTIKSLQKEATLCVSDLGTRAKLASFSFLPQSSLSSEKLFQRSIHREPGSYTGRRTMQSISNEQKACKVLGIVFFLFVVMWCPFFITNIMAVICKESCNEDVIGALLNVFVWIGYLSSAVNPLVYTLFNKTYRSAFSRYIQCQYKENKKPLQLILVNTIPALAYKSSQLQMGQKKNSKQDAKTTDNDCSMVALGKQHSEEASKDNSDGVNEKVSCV

[4] = biological target: 5HT2B receptors (Homo sapiens, UniProt P41595); assay: Radioreceptor competition binding, [3H]-mesulergine, membranes of transfected CHO-K1 cells; conditions: for nH: Table 5, 5HT2B
Chain of UniProt P41595 (P41595 whole entry): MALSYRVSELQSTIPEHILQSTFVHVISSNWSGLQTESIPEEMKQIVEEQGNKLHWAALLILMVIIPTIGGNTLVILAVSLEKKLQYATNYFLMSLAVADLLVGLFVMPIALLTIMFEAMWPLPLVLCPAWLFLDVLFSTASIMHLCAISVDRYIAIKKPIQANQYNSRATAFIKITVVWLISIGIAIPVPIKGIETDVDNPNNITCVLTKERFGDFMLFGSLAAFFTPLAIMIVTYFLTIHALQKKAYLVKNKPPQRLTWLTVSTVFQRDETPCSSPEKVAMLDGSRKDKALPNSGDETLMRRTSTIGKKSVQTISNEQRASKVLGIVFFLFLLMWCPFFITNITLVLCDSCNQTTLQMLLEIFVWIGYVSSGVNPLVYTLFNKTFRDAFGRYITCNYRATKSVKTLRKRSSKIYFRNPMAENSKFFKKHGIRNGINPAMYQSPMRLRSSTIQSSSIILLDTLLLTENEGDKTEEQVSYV

Structure (SMILES)	Ki [1] [nM]	Ki [2] [nM]	nH [3]	Ki ([3]; read-out: 5HT2A Ki ± SEM, Table 5) [nM]	nH [4]	Ki ([4]; read-out: 5HT2B Ki ± SEM, Table 5) [nM]	Ki [4] [nM]
CN(C)C1Cc2ccccc2C(c2ccccc2)C1 (racemic) [(±)-trans-PAT]	600	1300					
CN(C)[C@@H]1Cc2ccccc2[C@@H](c2ccccc2)C1 (relative stereo) [PAT 1, (1R,3S)-(−)-Trans-1-phenyl-3-N,N-dimethylamino-1,2,3,4-tetrahydronaphthalene]			0.9	407 ± 38.4	1.0	1170	
CN(C)[C@H]1Cc2ccccc2[C@H](c2ccccc2)C1 [PAT 2]			1.0		1.0		~2500

Like-named read-outs stand apart in the source and are kept apart here.
